Experimental data from the RNAGym collection of RNA variant scans (doi:10.7554/elife.90254).
The source gives no read counts; variants with many changes may rest on few reads.

B1: OR4K15 (parent)
chain: GUUAACGGUCAUAGGCCAUGGAAACUAGGAGCACCAUUUCGCUGCCAGUGAAGAAAUGAACAAAGAAAAUCUGGGCCAGGCAGGCAUCAAAAGAAAUAGUCUUGCGCUCAACCAGAAAGUCUGUAAUCAUUUUAAGGGUA

Variants of: B1
Assay: self-cleavage, relative activity (ratio to wild type); higher = more cleavage; in vitro, sequencing; the parent is a self-cleaving ribozyme

Row | Variant | self-cleavage
1 | GUUAACGGUCAUAGGCCAUGGAAACUAGGAGCACCAAUUCGCAGCCAGUGAAGAAAUGAACAAAGAAAAUCUGGGCCAGGCAGGCAUCAAAAGGAAUGGUCUUGCGCUCAACCGGAAAGUCUGUAACCAUUUUAAGGGUA [U37A U43A A94G A98G A114G U127C] | 0.2
2 | GUUAACGGUCAUAGGCCAUGGAAACUAGGAGCACCAUUACGCUGCCAGUGAAGAAAUGAACAAAGAAGAUCUGGGCCAGGCAGGCACCAAGAGAAAUAGUCUUGCGCUCAACCAGAAAGUCUGAAAUCAUUUUAAGGGUA [U39A A68G U87C A91G U124A] | 0.29
3 | GUUAACGGUCAUAGGCCAUGGAAACUAGGAGCACCAUUUCGCUGCCAGUGAGGGAAUGCACAAAGAAAAUCUGGGCCAGGCAGGCAUCAAAAGAAAUAGUCCUGCGCUCAACCAGAUAGUCUGUAAUCAUUUUAAGGGUA [A52G A54G A59C U102C A117U] | 1.48
4 | GUUAACGGUCAUAGGCCAUGGAGACUAGGAGCACCAUUUCGCUGCCAGUGAAGAAAUGAACAAAGAAAAUCUGGGCCAGGCAGGCAUCAAAAGAAAUAGUCUUGCGCUCAACCAGAAAGUCUGCAAUCAUUAUAAGGGUA [A23G U124C U132A] | 0.72
5 | GUUAACGGUCAUAGGCCAUGGAGACUAGGAGCACCAUUUCGCUGCCAGUGAAGAAAUGAACAUAGAAAAUCUGGGCCAGGCAGGCAUCAAAAGAAAUAGUCUUGCGCUCAACCAGAAAGUCUGUAGUCAUUUUAAGGGUA [A23G A63U A126G] | 1.08
6 | GCUAACGGUCAUAGGCCAUGGAAACUAGGAGCACCAUUUCGCUGCCAGUGAAGAAAUGAACAGAGAAAAUCUGGGCCAGGCAGGCAUCAAAAGAAAUAGUCUUGCGCUCAACCAGAGAGUCUGUAAUCAUUUUAAGGGUA [U2C A63G A117G] | 1.62
7 | GUUAACGGUCAUAGGCCUUGGAAACUGGGAGCACCAUUUCGCUGCCAGUGAAGAAAUGGACAAAGAAAAUCUGGGCCAGGCAGGCAUCAAAAGAAAUAGCCUUGCGCUCAACCAGAAAGUCCGUAAUCAUUUUAAGGGUA [A18U A27G A59G U100C U122C] | 1.38
8 | GUUAACGGUUAUAGGCUAUGGAAACUAGGAGCACCAUUUCGCUGCCAGUGAGGAAAUGAACAAAGAAAAUCUGGGCCAGGCAGGCAUCAAAAGAAAUAGUCUUGCGCUCAACCAGAAAGUCUGUAAUCAUUUUAAGGGUA [C10U C17U A52G] | 0.85
9 | GUUAACGGUCAUAGGCCAUGGAAACUAGGAGCACCAUUUCGCUGCCAGCGAAGAAAUGAACAAAGAAAAUCUGGGCCAGGCAGGCAUCAAAAGAAAUGGUCUUGCGCUCAACCAGAAGGUCUGUAAUCAUUUUAAGGGUA [U49C A98G A118G] | 0.18
10 | GUUAACGGUCAUAGGCCACGGAAACUAGGAGCACCAUUUCGCUGCCAGUGAGGAAAUGAGCAAAGAAAAUCUGGGCCAGGCAGGCAUCAAAAGAAAUAGUCUUGCGCUCAACCAGAAAGUCUGUAAUCAUUUUAAGGGUA [U19C A52G A60G] | 1.05
11 | GUUAACGGUCAUAGGCCAUGGAGACUAGGAGCACCAUUUCGCUGCCAGUGAAGAAAUGUACUAAGAAAAUCAGGGCCAGGCAGGCAUCAAAAGGAAUAGUCUCGCGCUCAACCAGAAAGUCUGUAGUCAUUUUAAGGGUA [A23G A59U A62U U72A A94G U103C A126G] | 0.07
12 | GUUAACGGUCAUAGGCCAUGGAAACUAGGGGCACCAUUUCGCUGCCAGUGAAGGAAUGAACAAAGAAAAUCUGGGCCAGGCAGGCGUCAAAAGAAAUAGUCUUGCGCUCAACCAGAAAGUCUGUAAUCAUUUUAAGGGUA [A30G A54G A86G] | 0.59
13 | GUUAACGGUCAUAGGCCAUGGAAACUAGGAGCACCAUUUCGCUGCCAGUGAAGAAAUGAACAAAGAAAAUCUGGGCCAGGCAGGCAUCAAAAGAAAUAGUCUUGCGCUCAACCAGGAGGUUUGUAAUCAUUUUAAGGGUA [A116G A118G C121U] | 0.48
14 | GUUAGCGGUCAUAGGCCAUGGAAACUAGGAGCACCAUUUCGCUGCCAGUGAAGAAAUGAACAAAGAAAAUCUGGGCCAGGCAGGCAUCAAAGGAAGUAGUCUUGCGCUCAACCAGAAAGUCUGUAAUCAUUUUAAGGGUA [A5G A92G A96G] | 1.33
15 | GUUAACGGUCAUAGGCCAUGGAAACUAGGAGCACCGUUUCGCUGCCAGUGAAGAAAUGAACAAUGAAAAUCUGGGCCAGGCAGGCAUCAAAAGAAAUAGUCUUGCGCUCAACCUGAAAGUCUGUAAUCAUUUUAAGGGUA [A36G A64U A114U] | 0.04
16 | GUUAACGGUCAUAGGCCAUGGAAACUAGGAGCACCAUUUCGCUGCCAGUGAAGAAAUAAACAAAGAAAAUCUGGGCCAGGCAGGCAUCAAAAGAAAUAGCCUUGCGCACAACCGGAAAGUCUGUAAUCAUUUUAAGGGUA [G58A U100C U108A A114G] | 0.02
17 | GUUAACGGUCAUAGGCCAUGGAAACUAGGAGCACCACUUCGCUGCCAGUGAAGAAAUGAACAAAGAAAAUCUGGGCCAGGCAGGCAUCAAAAGAAAUAGUCCUGCGCUCAACCAGAAAGUCCGUAAUCGUUUUAAGGGUA [U37C U102C U122C A129G] | 1.79
18 | GUUAACGGUCAUAGGCCAUGGUAACUAGGAGCACCAUUUCGCUGCCAGUGAAGAAAUGAACAAAGAAAAUCUGGGCCAGGCAGGCAUCAAAAGAGAUCGUCUUGCGCUCAACCAGAAAGUCUGUAAUCAUUUUAAGGGUA [A22U A95G A98C] | 2.53
19 | GUUAACGGUCAUAGGCCAUGGAAACUAGGAGCACCAUUUCGCUGCCGGUGAAGAAAUGAACAAAGAGAAUCUGGACCAGGCAGGCAUCAAAAGAAAUAGUCUUGCGCUCAACCAGAAAGUCUGUAAUCAUUUUAAGGGUA [A47G A67G G75A] | 0.08
20 | GUUAACGGUCAUAGGCCACGGAAACUAGGAGCACCAUUUCGCUGCCAGUGAAGAAAUGAACGAAGAAAAUCUGGGCCAGGCAGGCAUCGAAAGAAAUAGUCUUGCGCUCAACCAGAAAGUCUGUAAUCAUUUUAAGGGUA [U19C A62G A89G] | 1.7
21 | GUUAGCGGUCAUAGGCCAUGGAAACUAGGAGCGCCAUUCCGCUGCCAGUGAAGAAAUGAACAAAGAAAAUCUGGGCCAGGCAGGCAUCAAAAGAAAUAGUCUUGCGCUCAACCAGAAAGUCUGUAAUCAUUUUAAGGGUA [A5G A33G U39C] | 0.97

Row | Variant | self-cleavage
22 | GUUAACGGUCAUAGGCCAUGGAAACUAGGGGCACCAUUUCGCUGCCAGUGAAGAAAUGAACAAAGAAAAUCUGGGCCAGGCAGGCAUCAUAAGAAAUAGUCUUGCGCUCAACCAGAAAGUCUGUAGUCAUUUUAAGGGUA [A30G A90U A126G] | 0.7
23 | GUUAACGGUCAUAGGCCAUGGAAACUAGGAGCACCAUUUCGCUGCCAGUGAAGAAACGAACAAAGAAAAUCAGGGCCAGGCAGCCAUCAAAAGAAAUAAUCUUGCGCUCAACCAAAAAGUCUGUAAUCAUUUUAAGGGUA [U57C U72A G84C G99A G115A] | 0
24 | GUUAACGGUCAUAAGCCAUGGAAACUAGGAGCGCCAUUUCGCUGCCAGUGAAGAAAUGAACAAAGAAAACCUGGGCCAGGCAGGCAUCAGAAGAAAUAGUCCUGCGCUCAACCAGAAAGUCUGUAAUCAUUUUAAGGGUA [G14A A33G U70C A90G U102C] | 0.44
25 | GUUAACGGUCGUAGGCCAUGGAAACUAGGAGCACCAUUUCGCCGCCAGUGAAGAAAUGAACAAAGAAAAUCUGGGCCAGGCAGGCAACAAAAGAAAUAGUCUUGCGCUCAACCAGAAAGUCUGUAAUCAUUUUAAGGGUA [A11G U43C U87A] | 1.62
26 | GUUAACGGUCAUAGGCCAUGGAAGCUAGGAGCACCAUUUCGCUGCCAGUGAAGAAAUGAACUAAGAAAAUCUGGGCCGGGCAGGCAUCAAAAGAAGUAGUCUUGCGCUCAACCAGAAAGUCUGUAAUCAUUUUAAGGGUA [A24G A62U A78G A96G] | 0.22
27 | GAUAACGGUCGUAGGCCAUGGAAACUAGGAGCGCCAUUUCGCUGCCAGUGAAGAAAUGAACAAAGAAAAUCUGGGCCAGGCAGGCAUCAAAAGAAAUAGUCUUGCGCUCAACCAGAAAGUCUGUAAUCAUUUUAAGGGUA [U2A A11G A33G] | 0.62
28 | GUUAACGGUCAUAGGCCAUGGAAACCAGGAGCACCAUUUCGCUGCCAGUGAAGAAGUGAACGAAGAAAAUCUGGGCCAGGCAGGCAUCAAAAGAAAUAGUCUUGCGCUCAGCCAGAAAGUCUGUAAUCAUUUUAGGGGUA [U26C A56G A62G A111G A135G] | 0.09
29 | GUUAACGGUCAUAGGCCAUGGAAACUAGGAGCACCAUUCCGCCGCCAGUGAUGAAAUGAACAAAGAAAAUCUGGGCCAGGCAGGCAUCAAAAGAAGUAGUCUUGCGCUCAACCAGAAAGUCUGUAAUCAUUUUAAGGGUA [U39C U43C A52U A96G] | 1.35
30 | GUUAACGGUCGUAGGCCAUGGAAACUAGGAGCGCCAUUUCGCUGCCAGUGAAGAAAUGAACAAAGAAAAUCUGGGCCAGGCAGGCAUCAAAAGAAAUAGUCUUGCGCUCAACCAGAAAGUCUGUAAACAUUUUAAGGGUA [A11G A33G U127A] | 1.3
31 | GUUAACGGUCAUAGGCCAUGGAAACUAGGAGCACCAUUUCGCUGCCAGAGAAGAAAUGAACAAAGAAAAUCUGGACCGGGCAGGCAUCAAAAGAAAUAGUCUUGCGCUCGACCAGAAAGUCUGUAAUCAUUCUAAGGGUA [U49A G75A A78G A110G U132C] | 0.01
32 | GUUAGCGGUCAUAGGCCAUGGAAACUAGGAGCACCACUUCGCUGCCAGUGAAGGAAUGAACAAAGAGAAUCUGGGCCAGGCAGGCAUCAAAAGAAAUAGUCUUGCGCUCAACCAGAAAGUCUGUGAUCAUUUUAAGGGUA [A5G U37C A54G A67G A125G] | 0.69
33 | GUUAACGGUCGUAGGCCAUGGAAACUAGGAGCACCAUUUCGCUGCCAGUGAAGGAAUGAACAAAGAAAAUCAGGGCCAGGCAGGCAUCAAAAGAAAUAGUCUUGCGCUCAACCAGAAAGUCUGUAACCAUUUUAAGGGUA [A11G A54G U72A U127C] | 0.12
34 | GUUAACGGCCAUAGGCCAUGGAAACUAGGAGCACCAUUUCGCUGCCAGUGAAGAAAUGAACAAAGAUAAUCUGGGCCAGGCAGGCAUCUAAAGAAAUAGUCUUGCGCUCAACCAGAAAGUCUGUAAUCAUUUUAAGGGUA [U9C A67U A89U] | 2.33
35 | GUUAACGGUCAUAGGCCAUGGGAACUAGGAGCACCACUUCGCUGCCAGUGAAGAAAUGAACAAAGAAAAUCUGGGCCAGGCAGGCAUCAAAAGAAGUAGUCUUGCGCUCAACCAGAAAGUCUGUAAUCAUUUUAAGGGUA [A22G U37C A96G] | 1.01
36 | GUUAACGGUCAUAGGCCAUGGAAACUAGGAGCACCAUUUCGCUGCCAGUGAAGAAAUGAACAAGGAAAAUCUGGGCCAGGCAGGCAUCUAGAGAAAUAGUCUUGCGCUCAACCAGAAAGUCUGUAAUCAUUUUAAGGGUA [A64G A89U A91G] | 1.51
37 | GUUAACGGUCAUAGGCCAUGGAAACUAGGAGCACCAUUUCACCGCCAGUGAAGAAAUGAACAAAGAAAAUCUGAGCCAGGCAGGCAUCAAAAGAAAUAGUCUUGCGCUCAACCAGAAAGUCUGUAAUCAUUUUAAGGGUA [G41A U43C G74A] | 0.17
38 | GUUAACGGUCAUAGGCCAUGGAAACUAGGAGCACCAUUUCGCUGCCAGUGAAGAAAUGAACAAAGCAAAUCUGGGCCAGGCAGGCACCAAAAGAAAUAGUCUUGCGCUCAACCUGAAAGUCUGUAAUCAUCUUAAGGGUA [A66C U87C A114U U131C] | 0.01
39 | GUUGACGGUCAUAGGCCUUGGAAACUAGGAGCACCACUUCGCUGCCAGUGAAGAAAUGAACAAAGAAAGUCUGGGCCAGGCAGGCAUCAAAAGAAAUAGUCUUGCGCUCAACCAGAAAGUCUGUAAUCAUUUUAAGGGUA [A4G A18U U37C A69G] | 2.58
40 | GUUAACGGUCAUAGGCCAUGGAAGCUAGGAGCACCAUUUCGCUGCCUGUGAAGAAAUGAACAAAGAAAAUCUGGGCCAGGCAGGCAUCAAUAGAAAUAGUCUUGCGCUCAACCAGAAAGUCUGUAAUCAUUUUAAGGGUA [A24G A47U A91U] | 1.08
41 | GUUAACGGUCAUAGGCCAUGGAAACUAGGAGCACCAUUUCGCUGCCAGCGAAGAAAUGGACAAAGAAAAUCUGGGCCAGGCAGGCACCAAAAGGAAUAGUCUUGCGCUCAACCAGAAAGUCUGUAAUCAUUUUAAGGGUA [U49C A59G U87C A94G] | 1.06
